Test results published in PubChem BioAssay AID493035 (The Scripps Research Institute Molecular Screening Center, 2011).
The whole screen tested about 2,000 compounds, of which about 45 (2%) were called active.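 Rule for the calls: active = inhibition above the mean of all tested compounds plus 3 SD (cut at about 49% in these data); inactive = the rest.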 The list shows a part of the results.

biological target: Perilipin-5 (Homo sapiens) + 1-acylglycerol-3-phosphate O-acyltransferase ABHD5 (Homo sapiens) (UniProt Q00G26+Q8WTS1); assay: ABHD5-PLIN5 interaction inhibitors, pilot screen, cell lysate, split luciferase complementation, luminescence, NIH validation set (AID 493035);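 note: 0% = DMSO only wells while the 100% control is not stated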; settings: split G. princeps luciferase complementation, lysates, 4 h; at 7.9 µM, stronger effect = higher value
UniProt Q00G26, sequence (Q00G26 whole entry, looked up): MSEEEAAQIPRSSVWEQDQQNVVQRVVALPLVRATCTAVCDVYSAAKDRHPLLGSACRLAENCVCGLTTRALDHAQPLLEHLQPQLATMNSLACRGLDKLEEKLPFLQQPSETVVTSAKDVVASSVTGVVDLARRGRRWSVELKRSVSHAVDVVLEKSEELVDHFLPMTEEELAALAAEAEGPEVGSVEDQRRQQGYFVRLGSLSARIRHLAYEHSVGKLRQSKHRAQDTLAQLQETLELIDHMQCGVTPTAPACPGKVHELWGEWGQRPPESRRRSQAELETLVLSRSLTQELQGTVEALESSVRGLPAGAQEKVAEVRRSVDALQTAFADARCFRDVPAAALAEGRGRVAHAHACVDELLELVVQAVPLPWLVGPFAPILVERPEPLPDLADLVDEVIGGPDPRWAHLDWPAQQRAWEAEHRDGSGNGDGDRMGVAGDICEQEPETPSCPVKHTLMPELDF
UniProt Q00G26, sequence (Q8WTS1 whole entry, looked up): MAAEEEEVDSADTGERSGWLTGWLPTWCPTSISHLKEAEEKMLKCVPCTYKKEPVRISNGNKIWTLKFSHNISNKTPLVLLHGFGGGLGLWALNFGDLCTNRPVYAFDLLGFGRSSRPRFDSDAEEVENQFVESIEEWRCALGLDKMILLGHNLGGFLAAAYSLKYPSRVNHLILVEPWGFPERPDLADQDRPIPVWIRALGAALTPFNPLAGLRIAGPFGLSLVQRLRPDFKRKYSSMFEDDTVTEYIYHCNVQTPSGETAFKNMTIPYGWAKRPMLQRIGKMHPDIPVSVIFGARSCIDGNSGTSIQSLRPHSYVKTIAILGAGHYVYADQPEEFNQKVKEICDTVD

Compound | inhibition
COc1ccc2oc(=O)c(-c3nc(C)cs3)cc2c1 | inactive: -10.9%
COc1cc2c(cc1OC)C1(CCCCC1)CN(C)C2 | inactive: 5.94%
O=c1[nH]c(=O)n([C@H]2C[C@H](O)[C@@H](CO)O2)cc1C(F)(F)F | inactive: -11.2%
CC(C)C(=O)Nc1ccc2c3c(cccc13)CC2 | inactive: -5.83%
Cc1nnc(SCC2=C(C(=O)O)N3C(=O)[C@@H](NC(=O)Cn4cnnn4)[C@H]3SC2)s1 | inactive: -0.16%
C=C(C)COc1ccc(-c2n[nH]c(C)c2-c2ccc(OC)cc2)c(O)c1 | inactive: -1.33%
COCCOC(=O)C1=C(C)NC(C)=C(C(=O)OC(C)C)C1c1cccc([N+](=O)[O-])c1 (configuration not stated) | inactive: 0.47%
CN1C(C(=O)Nc2ccccn2)=C(O)c2ccccc2S1(=O)=O | inactive: -1.31%
COc1ccc2c(c1)C(=O)CC(c1ccccc1F)O2 (configuration not stated) | inactive: 0.11%
CC1(C)CC(c2csc(N)n2)CCO1 (configuration not stated) | inactive: -7.46%
O=C(O)CCCNc1ccc(S(=O)(=O)Nc2ccccc2C(=O)O)cc1C(=O)O | inactive: -8.17%
Cc1ccc2c(ccc(=S)n2C)c1 | inactive: -5.06%
CC1(C)[C@@H](O)CC[C@]2(C)[C@H]3C(=O)C=C4[C@@H]5C[C@@](C)(C(=O)O)CC[C@]5(C)CC[C@@]4(C)[C@]3(C)CC[C@@H]12 | inactive: 6.15%
COc1cc(C(=O)NCCc2c[nH]c3ccccc23)ccc1OCc1c(C)noc1C | inactive: 6.63%
CN(C)CCCNc1ncnc2c1cnn2-c1ccccc1 | inactive: -7.25%
COc1cc(NC(=O)COc2ccccc2)c(OC)cc1NC(C)=O | inactive: -6.54%
CN1/C(=C\C=Nc2ccccc2)C(C)(C)c2ccccc21 | inactive: 14.1%
Cc1ccc(C)c(OCCCC(C)(C)C(=O)O)c1 | inactive: -9.25%
O=C(CCCN1CCC(O)(c2ccc(Cl)cc2)CC1)c1ccc(F)cc1 | inactive: -0.3%
O=C(NC(=S)Nc1nc(-c2ccccc2)cs1)c1ccco1 | inactive: 5.13%
Cc1cccc2c1CC(C)(C)N/C2=C\C(N)=O | inactive: 5.35%
CC(C[N+](C)(C)C)OC(N)=O (configuration not stated) | inactive: -0.78%
CN(C)CCN(Cc1ccc(Cl)cc1)c1ccccn1 | inactive: -5.33%
O=C(c1cccc2ccccc12)C1CCCN(C(=O)CCN2CCCO2)C1 (configuration not stated) | inactive: -5.83%
Cc1onc(-c2c(Cl)cccc2Cl)c1C(=O)NC1C(=O)N2C1SC(C)(C)C2C(=O)O (configuration not stated) | inactive: -1.84%

Compound | inhibition
CN(CCCN1CCOCC1)Cc1cn(C)nc1-c1ccccc1F | inactive: -0.55%
COc1ccc([C@@H]2Sc3ccccc3N(CCN(C)C)C(=O)[C@@H]2OC(C)=O)cc1 | inactive: -6.83%
COC(=O)[C@@H](N)CS | active: 78.9%
O=C(CS(=O)(=O)c1ccccc1)c1ccc2c(c1)OCCO2 | inactive: -11.9%
Cc1cn([C@H]2C[C@H](N=[N+]=[N-])[C@@H](CO)O2)c(=O)[nH]c1=O | inactive: 4.68%
CC(C)c1ccc2[nH]c3c(c2c1)CCCC3=O | inactive: 2.54%
COC(=O)c1cc(Br)c(=O)n(CCc2ccc(O)cc2)c1 | inactive: -0.86%
Cc1ccc2c(c1)C(CCN)C(=O)N2Cc1ccccc1 (configuration not stated) | inactive: -12%
CCOC(=O)C1NN=C(C(=O)c2ccccc2)C1c1ccc(Cl)cc1 (configuration not stated) | inactive: 2.66%
CCOc1ccc(C(NC(C)=O)c2ccc(OC)c(OC)c2)cc1 (configuration not stated) | inactive: -7.04%
CC1(c2ccccc2)CC(C)(C)N2C(=O)C(=O)c3cccc1c32 (configuration not stated) | active: 59.8%
CCOc1ccc2nc(N/C(N)=N/S(C)(=O)=O)nc(C)c2c1 | inactive: 0.92%
C#CCN1C(=O)C(O)(CC(=O)c2ccc(OC)c(OC)c2)c2ccccc21 (configuration not stated) | inactive: 4.95%
CCCCC1C(=O)N(c2ccccc2)N(c2ccccc2)C1=O | inactive: 5.15%
COc1ccccc1/C=C/C(=O)OCCN1CCOCC1 | inactive: -8.59%
COc1ccc(S(=O)(=O)NC(Cc2cnc[nH]2)C(=O)O)cc1 (configuration not stated) | inactive: 6.14%
CC1/C(=C\c2ccc(Cl)cc2)C(=O)C2CC1C2(C)C (configuration not stated) | inactive: -2.73%
CN(C)CCOc1ccccc1Cc1ccccc1 | inactive: 7.5%
CC1=CC(=O)c2ccccc2C1=O | inactive: 46.6%
CCCC(=O)Nc1ccc(OCC(O)CNC(C)C)c(C(C)=O)c1 (configuration not stated) | inactive: -3.06%
CCn1c(C)cc2c(c1=O)C(c1ccccc1)C(C(=O)OC)=C(N)O2 (configuration not stated) | inactive: 0.01%
NC(=O)c1c(-c2ccccc2)oc2ccc(O)cc12 | inactive: -5.91%
COc1ccc(C2C3CCCCC3(O)CCN2C(=O)c2cccs2)cc1 (configuration not stated) | inactive: -2.4%
O=c1c(-c2ccccc2)c(O)c2cccc3c2n1CCC3 | inactive: -1.59%
COc1ccc(C2=NOC(COc3ccc4c(C)cc(=O)oc4c3)C2)c(OC)c1 (configuration not stated) | inactive: 27.1%

Compound | inhibition
CN(C)[C@@H]1C(=O)C(C(=O)NCN2CCCC2)=C(O)[C@@]2(O)C(=O)C3=C(O)c4c(O)cccc4[C@@](C)(O)C3CC12 (some centres not stated) | inactive: 11.2%
Cc1ccc(S(=O)(=O)NC(C(=O)Oc2cc3oc(=O)cc(C)c3cc2Cl)C(C)C)cc1 (configuration not stated) | inactive: 26.5%
Cc1[nH]c2ccccc2c1C(=O)C(=O)NCc1ccco1 | inactive: -9.25%
Cc1cnc(N)c2c(=O)oc3ccccc3c12 | inactive: -0.88%
COCCN(CCOC)Cc1c(C)[nH]c2c(C)c(C)ccc2c1=O | inactive: 6.95%
CCC(=O)Oc1ccc(C(=O)Nc2ccc([N+](=O)[O-])cc2)cc1 | inactive: 7.96%
CS(=O)(=O)c1cccc(C(=O)Oc2ccccc2)c1 | inactive: 3.1%
CC(=O)OCC(=O)[C@@]12OC3(CCCC3)O[C@@H]1C[C@H]1[C@@H]3CCC4=CC(=O)C=C[C@]4(C)[C@@]3(F)[C@@H](O)C[C@@]12C | inactive: 3.12%
C=CCOC(=O)C1=C(C)NC(=O)NC1/C=C/c1ccccc1OC (configuration not stated) | inactive: -9.8%
O=C(/C=C/c1ccc2c(c1)OCCCO2)c1ccc2ccccc2c1O | inactive: 26.6%
Nc1nnc(CSCc2ccc(Cl)cc2Cl)s1 | inactive: 3.53%
C(=C/c1nccc2c1[nH]c1ccccc12)/c1ccc2c(c1)OCO2 | inactive: 9.67%
OCC1CCN(Cc2cn(Cc3ccccc3)nc2-c2cc3ccccc3o2)CC1 | inactive: 3.18%
CC1(C)Cc2ccccc2-c2n[nH]c(=S)n21 | inactive: -12.1%
CC1CCCC(C)N1NC(=O)c1ccc(Cl)c(S(N)(=O)=O)c1 (configuration not stated) | inactive: -2.56%
Nc1nnc(-c2cccc(Cl)c2Cl)c(N)n1 | inactive: -8.24%
COc1ccccc1CCn1cnc2c3cc(C)ccc3n(C)c2c1=O | inactive: 12.2%
COc1ccc2c(c1)c(=O)oc1cc3occ(C(C)(C)C)c3cc12 | inactive: -10.9%
CC(=O)/C=C/c1ccc(C)o1 | inactive: 23.3%
CC(=O)O[C@]1(C(C)=O)CC[C@H]2[C@@H]3C=C(C)C4=CC(=O)CC[C@]4(C)[C@H]3CC[C@@]21C | inactive: -9.22%
CC(=O)NCCCCCCNC(C)=O | inactive: -0.27%
CC(C)OC(=O)CC1C(=O)NCCN1C(=S)NC(=O)c1ccccc1Cl (configuration not stated) | inactive: 4.38%
CC(C)Cc1ccc(C(C)C(=O)Nc2ccc(O)cc2)cc1 (configuration not stated) | inactive: -3.61%
Cc1nc(C)c(C)nc1C | inactive: -0.39%
COc1cc2cc(C(=O)O)[nH]c2c(OC)c1OC | inactive: -0.8%

Compound | inhibition
CC(=O)N(C(C)=O)c1nc2nc(C)cc(C)n2n1 | inactive: 4.56%
O=C(CC(C(=O)O)c1c[nH]c2ccccc12)c1ccccc1 (configuration not stated) | inactive: -7.3%
Cc1oc2cc(O)ccc2c(=O)c1Oc1ccccc1Br | inactive: 7.33%
COC(=O)CN1CC(=O)N(c2ccccc2)C1=S | inactive: -2.58%
CCCCC[C@H](O)/C=C/[C@@H]1[C@@H](CCCCCCC(=O)O)[C@@H](O)C[C@H]1O | inactive: 9.22%
O=C(/C=C/Sc1ccccc1)c1ccccc1 | active: 85.6%
C=CCC1(O)C(=O)N2C(=C1C(=O)N1CCOCC1)c1ccccc1CC2(C)C (configuration not stated) | inactive: 0.31%
Cc1c(OC(=O)CNC(=O)OC(C)(C)C)ccc2c3c(c(=O)oc12)CCC3 | inactive: 11.6%
O=C1Nc2ccc3sc4ccccc4c3c2C1=O | inactive: -7.44%
COc1ccccc1NC(=O)N1CCc2[nH]c3ccc(Cl)cc3c2C1 | inactive: 10.3%
CO/N=C(\C(=O)N[C@@H]1C(=O)N2C(C(=O)O)=C(COC(C)=O)CS[C@H]12)c1csc(N)n1 (stereo in doubt) | inactive: 14.3%
NC(=O)c1cccnc1 | inactive: -6.1%
CC12CCCCN1CCCc1c2[nH]c2ccccc12 (configuration not stated) | inactive: 6.67%
Cn1c(=O)c2c(ncn2CC(O)CO)n(C)c1=O (configuration not stated) | inactive: -11.7%
COc1cccc(N2C(=O)CC(c3c[nH]c4ccccc34)C2=O)c1 (configuration not stated) | inactive: -3.27%
O=C(O)C1CSC(c2ccc3c(c2)OCO3)N1 (configuration not stated) | inactive: 24.3%
N=C1C(c2ccccc2)=C(O)CN1CCCO | inactive: -12.8%
O=c1nc2n(c3c1oc1ccccc13)Cc1ccccc1-2 | inactive: 0.41%
COc1cc(C2C(C(=O)c3ccc(C)o3)=C(O)C(=O)N2Cc2cccnc2)ccc1O (configuration not stated) | inactive: -7.73%
CC(=O)Oc1c2occc2cc2ccc(=O)oc12 | inactive: 5.83%
OCCC1CN(Cc2ccccc2-c2ccco2)CCN1C1CCCC1 (configuration not stated) | inactive: -8.47%
Cc1ccc2c(c1)C(O)(c1c(C)[nH]c3ccccc13)C(=O)N2 (configuration not stated) | inactive: -4.15%
